# PubChem BioAssay AID1347120 (National Center for Advancing Translational Sciences (NCATS), 2019)
# The campaign covered roughly 390,000 compounds. About 930 (0.24%) were called active. The shares of active, inactive and inconclusive entries below differ from those in the screen. Calls come from the whole dose curve; as a rule, active = well fitted activation curve with a large enough effect; inconclusive = small, poorly fitted or top-dose-only effect; inactive = no such curve, though single readings can be large or run the other way. Where the call is inconclusive, the potency comes from a doubtful curve fit.
# Assay: qHTS for Suppressors of FUS Proteinopathy: Primary screen using FUS-linked yeast assay; note: nearly all actives have a fitted effect of over 55% in size;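 for growth rescue (activation): plate controls were DMSO vehicle for no effect and reference control for full effect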
# Conditions: S. cerevisiae FUS-expressing, OD600, 24 h; Potency: growth rescue; growth rescue (activation): at 76.6 µM (top of the series)
# Outline: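 Yeast FUS proteinopathy model; galactose-induced FUS (2%), starting OD 0.005. Cpds in dilution series, 24hr, 30C, 99% humidity. Abs 600 nm growth. Pos ctrl CP55940 (top 92uM final); neg ctrl DMSO.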
# Potency is the fitted concentration of half-maximal effect; tags give direction and shape of the fitted curve.
SMILES,Potency,growth rescue (activation)
Cc1c(Cc2ccccc2)c(=O)oc2cc(OCC(=O)N3CCC(C(N)=O)CC3)ccc12,inactive,–
CC(=O)NC(c1ccccc1)c1nc(-c2ccc3ccccc3c2)cs1 (centres undefined),inactive,–
CC[C@]12c3[nH]c4cc(-c5ccco5)ccc4c3CCN1C(=O)[C@@H](CC(=O)NCc1cccc(C(F)(F)F)c1)C[C@@H]2C(=O)N1CCN(C(=O)c2ccco2)CC1,"inconclusive: 50.1 µM [activator, single point]",–
CCN(CC)S(=O)(=O)c1ccc(C(=O)NCc2n[nH]c(=S)n2-c2ccc(Cl)c(Cl)c2)cc1,"inconclusive: 50.1 µM [activator, single point]",–
Cn1c(CN2CCCCC2)nc2cc(NC(=O)c3ccc(F)cc3)ccc21,"inconclusive: 7.94 µM [activator, partial curve, poor fit]",–
CCn1c(SCc2ccc(C(C)(C)C)cc2)nnc1-c1ccc(C(C)(C)C)cc1,inactive,–
Cc1cccc(NC(=O)CCn2nc(-c3ccccc3)c3ccccc3c2=O)c1,"inconclusive: 50.1 µM [activator, single point]",–
CCOc1cc(/C=N/NS(=O)(=O)c2ccccc2)ccc1OS(=O)(=O)c1ccc(C)cc1,inactive,–
COc1cccc(N2CCN(C(=S)NCc3ccco3)CC2)c1,"inconclusive: 56.2 µM [activator, partial curve, poor fit]",–
CN(C)c1ccc(C(=O)NC2CCCCN(Cc3ccc(Cl)cc3)C2=O)cc1 (centres undefined),"inconclusive: 25.1 µM [activator, partial curve, poor fit]",–
Cc1nn(-c2ccccc2)c(Cl)c1/C=C(\CC(=O)O)c1nc2ccccc2s1,"inconclusive: 50.1 µM [activator, single point]",–
Cc1nn2c3ccccc3nc2c2ccccc12,inactive,–
CC(C)[C@H](NS(=O)(=O)c1ccccc1)C(=O)OCn1nnc2ccccc2c1=O,"inconclusive: 50.1 µM [activator, single point]",–
CCOc1ccc(C(C)=O)cc1CN1C(=O)NC2(CCCCCC2)C1=O,"inconclusive: 14.1 µM [activator, partial curve, poor fit]",–
CCC(C)NC(=O)C1CCC(CNS(=O)(=O)c2ccc(Cl)cc2)CC1 (centres undefined),inactive,–
N#Cc1cn(-c2ccccc2)nc1-c1ccc2c(c1)OCCO2,inactive,–
CCCCNC(=O)CCCCCn1c(=O)[nH]c2cc(C(=O)OC)ccc2c1=O,"inconclusive: 1.78 µM [activator, full curve, poor fit]",–
CCOC(=O)c1cc(-c2ccc(C)cc2)n(CCC(=O)Nc2ccc(OC)c(OC)c2)c1C,"inconclusive: 11.2 µM [activator, single point]",–
O=C(COC(=O)C1CCN(S(=O)(=O)c2ccc3c(c2)OCCO3)CC1)Nc1ccccc1OC(F)F,"inconclusive: 8.91 µM [activator, partial curve, poor fit]",–
O=S(=O)(c1ccc2nc(COc3ccc(Cl)cc3Cl)[nH]c2c1)N1CCOCC1,"inconclusive: 44.7 µM [activator, single point]",–

SMILES,Potency,growth rescue (activation)
CCOC(=O)[C@]12CCCCC/C=C\1N(Cc1ccc(OC)cc1)C(=O)[C@H]2CC(=O)NCC12CC3CC(CC(C3)C1)C2,"inconclusive: 7.94 µM [activator, partial curve]",–
CCCCC[C@H]1CCCCC[C@H](O)C[C@H](O)[C@@H](O)/C=C/C(=O)O1,inactive,–
OC[C@@H]1CC[C@@H]2O[C@H](CCc3ccc(-c4ccc(F)cc4)cc3)[C@H](n3cc(C4CC4)nn3)C[C@@H]2O1,"inconclusive: 35.5 µM [activator, single point]",–
O=C(Cn1ncc2c3ccccc3n(Cc3ccccc3F)c2c1=O)NCCCN1CCCC1=O,"inconclusive: 50.1 µM [activator, single point]",–
COc1ccc(CC(=O)N2CCN=C2SCc2ccc([N+](=O)[O-])cc2)cc1,inactive,–
Cc1ccc(C2=CC(c3ccc(N(C)C)cc3)n3nnnc3N2)cc1 (centres undefined),inactive,–
COc1ccc(N2C(c3ccsc3)=Cc3cc4c(cc3C2c2c[nH]c3ccccc23)OCO4)cc1 (centres undefined),"inconclusive: 50.1 µM [activator, single point]",–
Cc1c(C(=O)N2CCC(C)CC2)c(S(=O)(=O)N2CCN(c3ccc(Cl)cc3)CC2)c(C)n1C,"inconclusive: 31.6 µM [activator, single point]",–
CC[C@]12c3[nH]c4ccc(OC)cc4c3CCN1C(=O)C(CC(=O)NCc1cccc(C(F)(F)F)c1)C[C@@H]2C(=O)N1CCN(C(=O)c2ccco2)CC1 (some centres undefined),"inconclusive: 25.1 µM [activator, single point]",–
CCCCn1c(N)c(N(CCC(C)C)C(=O)CSc2nnc3ccccn23)c(=O)[nH]c1=O,"inconclusive: 3.98 µM [activator, full curve]",–
Fc1ccc(COc2ccc(/C=N/n3cnnc3)cc2)cc1,"inconclusive: 0.891 µM [activator, partial curve, poor fit]",–
Cc1cccc(N2CCN(C3(c4ccccc4)C(=O)c4ccccc4C3=O)CC2C)c1 (centres undefined),"inconclusive: 31.6 µM [activator, single point]",–
C[C@@]12CCC=C[C@H]1[C@H](c1ccc(/C=C/c3ccccc3)cc1F)N(Cc1ccccc1)C2=O,"inconclusive: 25.1 µM [activator, single point]",–
O=C(CC1C(=O)NCCN1C(=O)Nc1ccccc1)Nc1cccc(C(F)(F)F)c1 (centres undefined),"inconclusive: 63.1 µM [activator, partial curve, poor fit]",–
COc1ccccc1-n1cnc2cc(NCc3ccccc3O)ccc21,"inconclusive: 35.5 µM [activator, single point]",–
CCN(C[C@H]1[C@@H](c2ccc(C3=CCCC3)cc2)[C@H](CO)N1c1nc(C)c(C)s1)S(=O)(=O)c1ccccc1[N+](=O)[O-],"inconclusive: 35.5 µM [activator, single point]",–
NC(=S)N/N=C/c1cccc(Br)c1,inactive,–
CCOC(=O)Cn1c(=O)n(-c2ccccc2OC)c2nc(-c3ccccc3C)nc(C(N)=O)c21,"inconclusive: 7.94 µM [activator, partial curve, poor fit]",–
CC(Cc1ccccc1)=NNS(=O)(=O)c1ccc([N+](=O)[O-])cc1,inactive,–
Cc1cc(C)cc(N(CC(=O)NCc2ccccc2Cl)S(=O)(=O)c2c(C)noc2C)c1,inactive,–

SMILES,Potency,growth rescue (activation)
O=C(Cn1nc(-c2ccccc2)ccc1=O)Nc1ccc(N2CCN(C(=O)c3ccccc3)CC2)cc1,"inconclusive: 20 µM [activator, partial curve, poor fit]",–
CCc1nn2c(=O)cc(COC(=O)C(c3ccccc3)c3ccccc3)nc2s1,"inconclusive: 25.1 µM [activator, partial curve, poor fit]",–
Cc1cccc(-c2nc(SCC(=O)Nc3ccc4c(c3)OCCO4)c(-c3ccccc3)[nH]2)c1,"inconclusive: 28.2 µM [activator, single point]",–
O=C1N[C@@H](Cc2ccccc2)C(=O)N2[C@@H]3N(S(=O)(=O)c4ccccc4)c4ccccc4[C@]3(Br)C[C@@H]12,"inconclusive: 28.2 µM [activator, single point]",–
COc1ccccc1N1CCN(C(=O)c2oc3ccccc3c2N)CC1,inactive,–
CC(=O)NC12CC3CC(C1)CC(C(=O)N1CCN(S(=O)(=O)c4ccc(Cl)s4)CC1)(C3)C2,"inconclusive: 39.8 µM [activator, partial curve, poor fit]",–
COc1ccccc1CNC(=O)c1cnn(-c2ccc(F)cc2F)c1C1CCN(C(=O)OC(C)(C)C)CC1,"inconclusive: 31.6 µM [activator, single point]",–
Cc1ccc(N2CC(NC(=O)Cc3ccc(F)cc3)CC2=O)cc1C (centres undefined),inactive,–
COc1ccccc1C1c2ccc3ccccc3c2Oc2ncn(CCCO)c(=N)c21 (centres undefined),"inconclusive: 35.5 µM [activator, single point]",–
CO[C@H]([C@H](C)/C=C/N(C)C=O)[C@@H](C)C(=O)CC[C@H](C)[C@H](O)[C@H](C)[C@H]1OC(=O)/C=C/C(C)=C/C[C@H](O)C[C@@H]2C=CC[C@@H](C[C@H](OC)[C@@H](CO)[C@@H](OC)C[C@@H](OC)[C@@H]1C)O2,"inconclusive: 11.2 µM [activator, partial curve, poor fit]",–
CCN(CC)S(=O)(=O)c1cccc(N=Nc2c(O)c3ccccc3oc2=O)c1,inactive,–
O=C(NCc1cccnc1)c1ccccc1CCc1ccccc1,"inconclusive: 31.6 µM [activator, single point]",–
Cc1nc(N(CCO)C2CCCCC2)c2nnn(Cc3ccccc3)c2n1,"inconclusive: 28.2 µM [activator, single point]",–
Cc1ccc(C)c(NC(=O)C(NS(=O)(=O)c2ccc3c(c2)CCC(=O)N3)c2ccccc2)c1 (centres undefined),inactive,–
c1ccc(-c2sc3ccccc3c2-c2ccc(OCCN3CCOCC3)cc2)cc1,"inconclusive: 35.5 µM [activator, single point]",–
Cc1ccc(C(=O)c2cc(C)sc2NC(=O)CN2CCN(C(=O)c3ccco3)CC2)cc1,"inconclusive: 44.7 µM [activator, single point]",–
O=S(=O)(c1ccc(OCC(O)CN2CCc3ccccc3C2)cc1)N1CCOCC1 (centres undefined),–,inconclusive: -53.6% [activator]
COc1cc(/C=N/Nc2nc(Nc3ccccc3)nc(N3CCOCC3)n2)ccc1OC(=O)c1ccco1,"inconclusive: 39.8 µM [activator, single point]",–
COc1ccc(C(=O)Nc2ccc(N3CCCC3)cc2)cc1,"inconclusive: 10 µM [activator, partial curve, poor fit]",–
